# In all, about 94,000 compounds went through this assay and about 4,000 (4.3%) were called active. The inconclusive results got no clear call from the source; some entries with a clear call stand among them for comparison. Calls follow the shape of the dose curve; as a rule, active = well fitted inhibition curve with a large enough effect; inconclusive = small, poorly fitted or top-dose-only effect; inactive = no such curve, though single readings can be large or run the other way. Where the call is inconclusive, the potency comes from a doubtful curve fit.
# Assay: Cytotoxic Profiling in NIH 3T3 Cell Line of Diverse Libraries Using Quantitative High-Throughput Screening; also: nearly all actives have a fitted effect of over 55% in size
# Conditions: NIH 3T3 viability, CellTiter-Glo ATP luminescence, 48-72 h; series mostly up to 96.7 µM
# Method in brief: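 Mouse fibroblast NIH 3T3 cells, 400 per well, received compound via pintool and were incubated for 48 or 72 hr prior to CellTiter-Glo ATP luminescence measurement.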
# Potency is read from the fitted curve at half-maximal effect; tags tell the direction and shape of the fitted curve.
row,Compound,Potency
1,Cn1nccc1C(=O)NCCc1noc(C2CC2)n1,inactive
2,O=C(NCc1cccc(Cl)c1)C1CCc2nnc(C3CC3)n21 (stereo unspecified),inactive
3,COc1ccc(OCc2nc(C3CN(C(=O)C4(c5ccccc5)CC4)C3)no2)cc1,"inconclusive: 50.1 µM [inhibitor, partial curve, poor fit]"
4,O=C(Nc1ccc([C@H]2OCC(=O)N(Cc3ccncc3)[C@@H]2CO)cc1)c1ccc(C(F)(F)F)cc1,"inconclusive: 44.7 µM [inhibitor, partial curve]"
5,CNC(=O)c1cc(C)nc2onc(C3CCN(C(=O)c4ccc(Cl)cc4)CC3)c12,inactive
6,Cc1noc(C)c1[S+](=O)([O-])N1CCC(N2Cc3ccccc3C2=O)CC1,"inconclusive: 50.1 µM [inhibitor, partial curve, poor fit]"
7,Cc1ccc([S+](=O)([O-])NC2CCN(c3ccc4nnc(-c5ccccc5)n4n3)CC2)cc1,"inconclusive: 11.2 µM [inhibitor, full curve, poor fit]"
8,CS(=O)(=O)N1CCC(C2CCNC2)CC1 (stereo unspecified),inactive
9,O=C1NCc2ccccc2CC12CCCN2CC1=CCCCC1 (stereo unspecified),"inconclusive: 50.1 µM [inhibitor, partial curve, poor fit]"
10,Cc1nc(-c2ccc(OC3CCN(C(=O)c4nn(C)c5ccccc45)C3)cc2)no1 (stereo unspecified),"inconclusive: 44.7 µM [inhibitor, partial curve, poor fit]"
11,O=C(NC1CN(c2ccnc3ccnn23)C1)c1ccccc1F,"inconclusive: 31.6 µM [inhibitor, partial curve, poor fit]"
12,COC[C@H]1CCCN1C(=O)C[C@@H]1O[C@H](CNC(=O)NC(C)C)[C@@H](O)[C@H]1O,inactive
13,COc1ccc(OCC(O)CN2CCC(=O)N(CC(C)(C)C)Cc3cc4c(cc32)OCO4)cc1 (stereo unspecified),"inconclusive: 44.7 µM [inhibitor, partial curve, poor fit]"
14,CCN1CCN(C(=O)CN2CC3CC(C2)[C@H]2CCCC(=O)N2C3)CC1 (stereo partly specified),inactive
15,O=C(O)CCCc1nc(-c2ccncc2)nn1C1Cc2ccccc2C1,"inconclusive: 44.7 µM [inhibitor, partial curve]"
16,O=C(NC1CCCN(c2cc(-c3ccccc3)[nH]n2)C1)c1c[nH]c2ccccc12 (stereo unspecified),"inconclusive: 50.1 µM [inhibitor, partial curve, poor fit]"
17,CNC(=O)c1cc(C2CC2)nc2onc(C3CCCN3C(C)=O)c12 (stereo unspecified),inactive
18,CCOC(=O)[C@@H]1CN(C(=O)OCC(C)(C)C)[C@H]2c3ccc(OC)cc3O[C@@H]12,"inconclusive: 44.7 µM [inhibitor, partial curve, poor fit]"
19,O=C1CC[C@]2(C(=O)NCc3ccccn3)CCCC[C@H]2N1CCc1ccccc1,inactive
20,CC(C)(C)c1ccnc(N[C@H]2CO[C@H]3[C@@H]2OC[C@@H]3NC(=O)c2ccco2)n1,"inconclusive: 89.1 µM [inhibitor, partial curve]"
21,COc1cccc(C(=O)N2CCC(Oc3ccccc3-c3nc(C4CCOCC4)no3)C2)c1 (stereo unspecified),"inconclusive: 50.1 µM [inhibitor, partial curve, poor fit]"
22,COc1ccc(C(=O)N2CCC[C@H]2c2nc(-c3ccc(OC)c(OC)c3)no2)c(OC)c1,inactive

row,Compound,Potency
1,CCn1nccc1C(=O)N1CCC2(CC1)c1[nH]c3ccccc3c1CCN2C,inactive
2,O=C(CNC(=O)c1ccc(-c2cccc(C(F)(F)F)c2)cc1)NCc1ccc(F)cc1,"inconclusive: 7.94 µM [inhibitor, full curve, poor fit]"
3,CNc1nccc(N2CCC(CC(=O)NC3CCN(Cc4ccccc4)CC3)CC2)n1,active: 35.5 µM
4,Cc1ccc(-n2c(C3CCN(C(=O)Cc4ccc(Cl)cc4)CC3)n[nH]c2=O)cc1,active: 44.7 µM
5,Cn1ncc2c(C(=O)NCc3cccc(C(F)(F)F)c3)cc(-c3ccsc3)nc21,"inconclusive: 14.1 µM [inhibitor, full curve]"
6,COc1ncc(-c2nc(-c3c(C)noc3C)cc3c2cc(C)n3CCN(C)C)cn1,"inconclusive: 3.16 µM [inhibitor, full curve, poor fit]"
7,Cn1ncc(N2CCOC(CCNC3CCC4(CCNCC4)CC3)C2)cc1=O (stereo unspecified),inactive
8,COc1ccc(NC(=O)c2ccc3nc(-c4ccccn4)oc3c2)cc1,inactive
9,CCc1nncn1C1CCN(S(=O)(=O)c2ccc(Cl)cc2C)CC1,inactive
10,O=C(c1nccc2ccccc12)N1CCc2nc3cc[nH]n3c(=O)c2C1,inactive
11,C[S+](=O)([O-])N1CCC(Cn2ccc3c(N4CCOCC4)nc(-c4ccc(CO)cc4)cc32)CC1,"inconclusive: 8.91 µM [inhibitor, full curve, poor fit]"
12,Cc1ccccc1C(=O)N1CCN(c2cc(-c3ccc(F)cc3)[nH]n2)CC1,"inconclusive: 39.8 µM [inhibitor, partial curve, poor fit]"
13,CN(CC#N)C(=O)c1cc(-c2cc(Cl)cc(Cl)c2)nc2c1cnn2C,"inconclusive: 50.1 µM [inhibitor, partial curve, poor fit]"
14,O=C(NCc1ccccc1Cl)C1CCc2nnc(C3CCN([S+](=O)([O-])c4ccccc4Cl)CC3)n21 (stereo unspecified),"inconclusive: 70.8 µM [inhibitor, single point]"
15,O=C(O)CCC(=O)NC[C@H]1Cn2c(-c3ccc(Cl)cc3)cnc2CO1,inactive
16,CC(=O)N1CCCC(N2C(=O)c3c(c(C)nn3-c3ccccc3)C2C)C1 (stereo unspecified),inactive
17,CCN1c2cc(C(=O)NCc3ccc4c(c3)OCO4)ccc2C(=O)N2CCCCCC21 (stereo unspecified),"inconclusive: 50.1 µM [inhibitor, partial curve, poor fit]"
18,COc1ccc(-c2noc([C@@H]3CCCN3C(=O)c3cc(F)cc(F)c3)n2)cc1OC,"inconclusive: 39.8 µM [inhibitor, partial curve, poor fit]"
19,O=C(c1cccnc1)N1CCCCCC1c1nnc(-c2ccccc2)o1 (stereo unspecified),inactive
20,O=C(Nc1ccc([N+](=O)[O-])cc1)NC1CCCN(CCn2nc3n(c2=O)CCCC3)C1 (stereo unspecified),"inconclusive: 50.1 µM [inhibitor, partial curve, poor fit]"
21,COc1cc(-c2ccc(C(F)(F)F)cn2)cc2c1OCCNC2,"inconclusive: 44.7 µM [inhibitor, partial curve, poor fit]"
22,O=C(NC1CC1)c1ccc2c(c1)OCCN(c1cccc(OC(F)(F)F)c1)C2,"inconclusive: 50.1 µM [inhibitor, partial curve, poor fit]"

row,Compound,Potency
1,COc1ccc(-c2noc(-c3ccc(N4CCCOCC4)nc3)n2)cc1,"inconclusive: 35.5 µM [inhibitor, partial curve]"
2,O=C(c1ccc2c(c1)OCO2)N1CCC2(C1)C(=O)N(c1ccccc1)c1ccccc12 (stereo unspecified),inactive
3,O=C(Nc1cccc(-n2cccn2)c1)C1CCCN1C(=O)CC1CC1 (stereo unspecified),inactive
4,Cc1cc(C(=O)NC2CC(c3cc(=O)[nH]c(C4CC4)n3)C2)c(C)o1 (stereo unspecified),inactive
5,CCOc1ccc(CC(=O)NC2CCN(c3cc(-c4ccccc4)[nH]n3)C2)cc1OCC (stereo unspecified),"inconclusive: 70.8 µM [inhibitor, single point]"
6,COc1ccccc1-c1ccc(C(=O)N2CCC(C(=O)NC(C)C)CC2)cc1,"inconclusive: 44.7 µM [inhibitor, partial curve, poor fit]"
7,COc1ccc(OC)c(CN2CCNc3cc(-c4ccccc4)ncc3C2)c1,"inconclusive: 31.6 µM [inhibitor, partial curve, poor fit]"
8,CC1=C[C@@H](CN2CCC(O)CC2)[C@H](C(C)C)C[C@H]1Cc1nnc(-c2ccccc2F)o1,active: 112 µM
9,Cc1ccc(-c2nnc(C3CN(C(=O)C4CCCCC4)CC34CCOCC4)o2)cc1 (stereo unspecified),inactive
10,COc1ccccc1Nc1ccnc(N2CCCC2C(=O)N2CCOCC2)n1 (stereo unspecified),inactive
11,Cn1cnnc1-c1nn(C)c2c1CN(C(=O)CCc1nc3ccccc3s1)CC2,inactive
12,CCN1CCC2(CC1)Cc1ccccc1CN(C(=O)C1CCCC1)C2,inactive
13,COc1ccc(OC)c([S+](=O)([O-])c2nnn3c2nc(NCc2ccncc2)c2ccccc23)c1,"inconclusive: 50.1 µM [inhibitor, partial curve, poor fit]"
14,CCOc1cccc(CNC(=O)[C@@]23CCCC[C@H]2N(C)C(=O)CC3)c1,inactive
15,COCCn1c(=O)c(C(=O)N2CCN(C(=O)Cc3ccc(OC)cc3)CC2)nc2cccnc21,inactive
16,O[C@@H]1C[C@@H](c2nc(-c3ccc4c(c3)OCO4)no2)N(Cc2ccc(C(F)(F)F)cc2)C1,"inconclusive: 89.1 µM [inhibitor, partial curve, poor fit]"
17,COc1ccc(-c2cccc(C(=O)NCc3ccccc3C(F)(F)F)c2)nn1,"inconclusive: 20 µM [inhibitor, full curve]"
18,CC1Oc2ccc(NC(=O)c3ccc(F)cc3F)cc2CN(Cc2ccccc2Cl)C1=O (stereo unspecified),"inconclusive: 39.8 µM [inhibitor, partial curve, poor fit]"
19,O=C(NCc1cccc(C(F)(F)F)c1)c1nc2cccnc2n(CCc2ccccc2)c1=O,inactive
20,O=C(CCC[C@@H]1[C@H]2CCCN3CCC[C@@H](CN1C(=O)c1ccccc1)[C@@H]23)NCCCN1CCCCC1,"inconclusive: 79.4 µM [inhibitor, single point]"
21,O=C(c1ccc2c(c1)OCO2)N1CCC(Cc2nc(-c3ccccc3)no2)CC1,"inconclusive: 12.6 µM [inhibitor, full curve, poor fit]"
22,Fc1ccccc1-c1cc2c(ccn2Cc2ccncc2)c(N2CCOCC2)n1,active: 35.5 µM
